In PubChem BioAssay AID2071 (Sanford-Burnham Center for Chemical Genomics, 2009):
Some of the results follow. Shown are side measurements of this screen, not its main read-out; they come without a call. The list favours compounds with an active or inconclusive main result.

Test: NALP1 inflammasome inhibitors in reconstituted yeast, colorimetric, S. cerevisiae, triplicate retest (AID 2071)
Details: S. cerevisiae NALP1/ASC/caspase-1 growth, X-gal OD620, 72 h, at 20 µM, stronger effect = higher value
With `Oc1c(Br)cc(Br)cc1C=Nc1cccnc1` the inhibition was 92.1%. Compound `Nc1c(Cl)ncnc1N/N=C/c1ccccn1` has an inhibition of 73.2%. Compound `COc1cc(NC(C)CCCN)c2ncccc2c1Oc1ccccc1` (centres undefined) has an inhibition of 80.9%. For `Oc1c(Cl)cc(Cl)c2c1NCCC2`, the inhibition was 96.6%. Compound `CCCCCCCCCCCCCCCC[n+]1ccc(C(N)=O)cc1` has an inhibition of 99.2%. For `CCN(CC)c1ccc(N=Cc2ccc([N+](=O)[O-])o2)cc1`, the inhibition was 88.2%. In the case of `Cc1cc(Cl)c(OCCOCCN2CCC(C)CC2)c(Br)c1`, the inhibition is reported as 51.1%. In the case of `CC(=O)N1N=C(c2ccc3ccccc3c2)OC1(C)C`, the inhibition is reported as 55.3%. `Cc1cc(Br)ccc1OCCn1ccnc1` gave an inhibition of 51.5%. In the case of `Clc1ccc(OCCCNCc2ccccc2)c2ccccc12`, the inhibition is reported as 110%. With `Cc1cc(C)n(C(C[N+](=O)[O-])c2ccc(Cl)cc2)n1` (centres undefined) the inhibition was 105%. `Clc1ccc(OCCOCCN2CCc3ccccc3C2)c(Cl)c1` gave an inhibition of 102%. `COc1ccccc1OCC(=O)NCCSCc1ccc(Cl)cc1` gave an inhibition of 64.9%. Work on `CCCCNCCOCCOc1ccc(Cl)cc1Br` yielded an inhibition of 55.8%. With `CS(=O)(=O)c1nc(-c2ccco2)cc(C(F)(F)F)n1` the inhibition was 113%. In the case of `CN(C)c1ccc(/C=C/c2ccc3ccccc3[n+]2C)cc1`, the inhibition is reported as 99.3%. `O=C1/C(=C/c2ccccc2)CCCc2ccccc21` gave an inhibition of 55.9%. `COc1ccccc1OCCN1CSC(=S)N(C)C1` gave an inhibition of 114%. Work on `Cc1ccc(C(C[N+](=O)[O-])c2c(C)[nH]n(-c3ccccc3)c2=O)cc1` (centres undefined) yielded an inhibition of 93.8%. Work on `C(=C\c1nc(N2CCCC2)c2ccccc2n1)/c1ccccc1` yielded an inhibition of 107%. `COc1ccc(NC(=S)N(C(C)C)C2CCN(C(C)C)CC2)cc1Cl` gave an inhibition of 106%. Compound `c1ccc(-c2cccc(-c3ccccn3)n2)nc1` has an inhibition of 108%. Work on `COCCCNCCOc1ccc(C(C)(C)c2ccccc2)cc1` yielded an inhibition of 50.9%. With `O=C(NC(=S)Nc1cccnc1)c1cc2ccccc2o1` the inhibition was 66.7%. In the case of `CSc1ccc(/C=C/C(=O)c2ccc(NC(C)=O)cc2)cc1`, the inhibition is reported as 53.1%. `NC(=O)/C=C\C(=O)Nc1cccc(C(F)(F)F)c1` gave an inhibition of 115%. Compound `CC(C)(C)n1nc(-c2ccc(F)cc2)c2c(N)ncnc21` has an inhibition of 71.2%. For `CNCc1ccccc1Sc1cc(O)ccc1O`, the inhibition was 79.7%. With `Cc1ccc(C(=O)O)cc1N=Cc1cc(Br)cc(Br)c1O` the inhibition was 74.7%. With `CN1CCC(Oc2ccc(Sc3ccccc3)cc2)CC1` the inhibition was 50.8%. For `CC(C)c1ccc(N2C(=O)CC(Sc3ncn[nH]3)C2=O)cc1` (centres undefined), the inhibition was 111%. `CSc1ccc2c(c1)N(CCC1CCCCN1C)c1ccccc1S2` (centres undefined) showed an inhibition of 102%. Compound `CCOC(=O)/C=C/C(=O)Nc1cccc([N+](=O)[O-])c1` has an inhibition of 113%. `CCN1/C(=C/C=C/C=C/c2sc3ccccc3[n+]2CC)Sc2ccccc21` showed an inhibition of 91%. `N/C(Cc1ccc(Cl)cc1)=N\OC(=O)C1CCCCC1` showed an inhibition of 66%. In the case of `CCC(C)c1ccccc1NC(=O)CN1CCN(C/C=C/c2ccccc2)CC1` (centres undefined), the inhibition is reported as 50.4%. For `O=C(CC1Sc2ncnn2C1=O)Nc1ccc(Br)cc1` (centres undefined), the inhibition was 117%. Work on `CNc1nc(SCc2ccccc2Cl)nc2c1CCCC2` yielded an inhibition of 110%. `O=C(Nc1ccc(Br)c(Cl)c1)C1CC1` showed an inhibition of 53.4%. In the case of `O=C(Nc1cc(Cl)ccc1-n1cncn1)c1ccc([N+](=O)[O-])s1`, the inhibition is reported as 95.9%. Compound `Cc1ccc(Nc2cc(C)nc(NCc3ccccc3)n2)cc1` has an inhibition of 104%. Compound `Cc1nc2c(=O)n(C)c(=O)n(C)c2nc1Cl` has an inhibition of 92%. `O=S(=O)(CC(CN1CCCCC1)N1CCCCC1)c1ccc2ccccc2c1` (centres undefined) gave an inhibition of 111%. With `CCCc1[nH]nc2c1C(c1ccoc1)C(C#N)=C(N)O2` (centres undefined) the inhibition was 69.7%. Compound `Cc1[nH]n(-c2ccccc2)c(=O)c1C(C[N+](=O)[O-])c1ccc(Br)cc1` (centres undefined) has an inhibition of 97.7%. `OC(CN1CCN(Cc2ccccc2)CC1)Cn1c2ccccc2c2ccccc21` (centres undefined) showed an inhibition of 93.1%. Work on `Cc1cc(Br)ccc1OCCCCN1CCC(C)CC1` yielded an inhibition of 65.7%. For `O=C(NC(Nc1nc2ccc([N+](=O)[O-])cc2s1)(C(F)(F)F)C(F)(F)F)c1ccccc1Cl`, the inhibition was 96.8%. With `CN1C/C(=C/c2ccncc2)C(=O)/C(=C/c2ccncc2)C1` the inhibition was 110%. `O=C1C=CC(=O)N1CCNc1ncc(C(F)(F)F)cc1Cl` showed an inhibition of 112%. `CC(C)N1CCC2(CC1)N=C(c1ccc3c(c1)OCO3)CC(c1cc(Cl)ccc1O)N2` (centres undefined) showed an inhibition of 99.9%. `CCOC(=O)COc1ccccc1/C=C\[N+](=O)[O-]` showed an inhibition of 106%. For `C#CCN(C)CCCOc1ccc(Cl)cc1Cl`, the inhibition was 60.7%. With `COc1ccc(NC(=O)CC2Sc3ncnn3C2=O)cc1` (centres undefined) the inhibition was 111%. Work on `CC[n+]1c(/C=C/c2ccc(N(C)C)cc2)ccc2ccccc21` yielded an inhibition of 97.7%. In the case of `CCCCCCCCCCOC(=O)Cn1c(COc2ccc(Cl)cc2)[n+](C)c2ccccc21`, the inhibition is reported as 91.6%. For `CCOc1ccc(N2C(=O)CC(N)C2=O)cc1` (centres undefined), the inhibition was 114%. With `CNC(=O)c1nnsc1S(=O)(=O)c1ccc(Cl)cc1` the inhibition was 109%. `CCOC(=O)c1ccc(NC(=O)CC2Sc3ncnn3C2=O)cc1` (centres undefined) gave an inhibition of 113%. With `CCOC(=O)c1ccc(N2C(=O)C=CC2=O)cc1` the inhibition was 116%. Compound `Cc1cc(C)cc(N2C(=O)CC(Sc3ncn[nH]3)C2=O)c1` (centres undefined) has an inhibition of 113%. `CC(C)(C)c1cc2cccnc2n1Cc1cccc(Cl)c1` showed an inhibition of 62.7%. `Cc1ccc(OC(=S)Nc2ccc(O)cc2)cc1` showed an inhibition of 98.3%. Work on `Cn1cnc([N+](=O)[O-])c1S(=O)(=O)c1ccc(Cl)cc1` yielded an inhibition of 104%. Work on `Cc1cccc(C)c1C(OCCN(C)C)C1CCCCC1` (centres undefined) yielded an inhibition of 50.9%. `Nc1nc(-c2ccc(Oc3ccccc3)cc2)cs1` showed an inhibition of 100%. Work on `COc1ccccc1OCC(=O)NCCSCc1ccccc1Cl` yielded an inhibition of 53.1%. `Cc1ccc(S(=O)(=O)N(C(=O)c2ccncc2)c2ccc(OC(=O)c3ccncc3)c3ccccc23)cc1` showed an inhibition of 67.6%. In the case of `CN1CCc2cccc3c2[C@H]1Cc1ccc(O)c(O)c1-3`, the inhibition is reported as 102%. In the case of `c1cnc2c(c1)ccc1cccnc12`, the inhibition is reported as 94%. `CCOc1ccccc1NC(=O)/C=C/C(N)=O` gave an inhibition of 110%. For `CN(C)C(C)(C)C#CCC(c1ccccc1)c1ccccc1`, the inhibition was 61%. Compound `O=C(Nc1ccc(Cl)c(Cl)c1)Oc1ccc(NC(=O)c2ccco2)cc1` has an inhibition of 61.2%. Work on `OC(CNCCC1C=Nc2ccccc21)Cn1c2ccc(Cl)cc2c2cc(Cl)ccc21` (centres undefined) yielded an inhibition of 90.3%. `CC1=CC(=O)C=C(C)C1=NOS(=O)(=O)c1ccccc1` showed an inhibition of 53.9%. `CCCCCCCCCCCCCCCC[n+]1ccc(/C=N/O)cc1` showed an inhibition of 99.1%. With `Cc1cccc2sc(N(CCCN(C)C)C(=O)c3sc4ccccc4c3Cl)nc12` the inhibition was 96.8%. Work on `CCCCCCOc1ccc(/C(C)=N/NC2=NCCN2)cc1` yielded an inhibition of 95.9%. Work on `Cc1cc(Nc2ccccc2)nc2cc(O)ccc12` yielded an inhibition of 51.4%.
